According to paper PMC4336329 (PLoS ONE, 2015):
Among all 310,000 compounds or so, about 14,000 (4.5%) showed an effect of 50% or more. The effect is printed as a negative number. The list shows a part of the results.

Target: human ether-à-go-go-related gene (hERG) potassium channel (human, UniProt Q12809)
Experiment: primary screen, population patch clamp on CHO cells stably expressing hERG
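Note: peak tail current of the secondary pulse compared with the same well before compound.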

Sequence of human ether-à-go-go-related gene (hERG) potassium channel (Q12809 whole entry, looked up): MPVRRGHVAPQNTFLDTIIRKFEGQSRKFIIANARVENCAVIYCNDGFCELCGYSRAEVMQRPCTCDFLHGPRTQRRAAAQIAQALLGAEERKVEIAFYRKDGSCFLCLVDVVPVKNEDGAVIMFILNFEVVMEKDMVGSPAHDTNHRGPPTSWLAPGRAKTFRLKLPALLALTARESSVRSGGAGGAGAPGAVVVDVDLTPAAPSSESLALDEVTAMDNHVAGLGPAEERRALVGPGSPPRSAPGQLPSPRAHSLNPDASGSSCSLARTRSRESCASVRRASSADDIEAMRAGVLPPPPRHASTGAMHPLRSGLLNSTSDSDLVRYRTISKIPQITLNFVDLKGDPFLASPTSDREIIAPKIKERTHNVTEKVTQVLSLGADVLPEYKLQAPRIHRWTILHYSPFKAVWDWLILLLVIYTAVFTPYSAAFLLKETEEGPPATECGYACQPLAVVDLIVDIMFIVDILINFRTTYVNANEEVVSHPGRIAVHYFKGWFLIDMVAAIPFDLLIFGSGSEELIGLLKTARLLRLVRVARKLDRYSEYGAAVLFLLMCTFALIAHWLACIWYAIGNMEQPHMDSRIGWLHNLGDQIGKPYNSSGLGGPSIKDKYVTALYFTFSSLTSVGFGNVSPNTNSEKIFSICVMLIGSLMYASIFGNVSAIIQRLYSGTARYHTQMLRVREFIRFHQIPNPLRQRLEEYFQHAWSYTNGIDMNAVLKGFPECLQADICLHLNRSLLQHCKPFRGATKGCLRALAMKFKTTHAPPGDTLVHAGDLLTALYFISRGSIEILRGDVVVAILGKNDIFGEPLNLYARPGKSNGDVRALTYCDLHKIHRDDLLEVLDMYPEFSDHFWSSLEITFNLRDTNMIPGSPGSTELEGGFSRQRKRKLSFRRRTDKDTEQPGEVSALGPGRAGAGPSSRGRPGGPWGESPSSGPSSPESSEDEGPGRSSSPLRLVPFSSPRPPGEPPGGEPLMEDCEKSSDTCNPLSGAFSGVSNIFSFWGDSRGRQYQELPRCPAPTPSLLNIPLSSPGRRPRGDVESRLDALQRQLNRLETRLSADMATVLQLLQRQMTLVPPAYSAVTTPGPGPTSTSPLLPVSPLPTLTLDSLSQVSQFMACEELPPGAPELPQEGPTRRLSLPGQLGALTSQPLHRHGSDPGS

Row | SMILES | hERG current change (%, negative = inhibition) at 10uM [%]
1 | O=C(NCc1ccc(Cl)cc1Cl)C1CC(=O)N(Cc2ccccc2)C1 (centres unmarked) | -47.9
2 | O=C(NC1CCCCC1)[C@@H]1CC=C[C@@H]2CCN(Cc3ccccc3)C(=O)[C@@H]21 | 8.49
3 | O=C(Cc1ccc(Cl)cc1)NNC(=O)c1ccco1 | 10.2
4 | Cc1cc(-c2ccccc2)nc2cc(C(=O)N(Cc3ccccc3)Cc3ccccc3)nn12 | -5.55
5 | Cc1ccc(C)c(S(=O)(=O)NC(C)C(=O)NCc2ccccn2)c1 (centres unmarked) | 14.6
6 | COC(=O)[C@@]1(Cc2ccc(OC)cc2)[C@H]2c3cc(C(=O)N(C)C)n(Cc4c(CO)[nH]cc(C)c4=O)c3C[C@H]2CN1C(=O)c1ccccc1 | 4.95
7 | CCC(=O)OCC(=O)Nc1cc(S(=O)(=O)N(C)C)ccc1Cl | 17.1
8 | Cc1cc(C(F)(F)F)n(-c2nc(C(=O)O)cs2)n1 | 37
9 | CC(C)n1c(O)c(N=Nc2ccc(Cl)c(C(=O)O)c2)c2ccccc21 | -5.41
10 | CCc1noc(C)c1C(=O)NCCc1ccc(F)cc1 | 5.94
11 | Cc1nc(NCCCN2CCOCC2)c2oc3ccccc3c2n1.Cl | -15.5
12 | O=C(CCCOc1ccccc1)Nc1ccc(S(=O)(=O)Nc2ccccn2)cc1 | 20.6
13 | C=CCNC(=S)Nc1ccc(N2CCOCC2)c(S(=O)(=O)Nc2ccccc2Cl)c1 | -12.5
14 | Cc1[nH]c2ccccc2c1C(O)CN1CCC2(CC1)OCCO2 (centres unmarked) | -44.1
15 | CCNC(=O)C1CC(=O)OC12CCCCC2 (centres unmarked) | -0.628
16 | CCOC(=O)C1=C(c2ccccc2)NC(=S)NC1c1cc([N+](=O)[O-])ccc1OC (centres unmarked) | 2.63
17 | Cc1ccc(C(=O)Nc2scc(-c3ccccc3)c2C(=O)O)o1 | 15.1
18 | COc1ccc(O)c(C(=O)c2cnn(S(=O)(=O)c3ccc(C)cc3)c2)c1 | 4.18
19 | COc1ccc(CNC(=O)C2CCC(CNS(=O)(=O)c3ccc(C)cc3)CC2)cc1 (centres unmarked) | 16.4

Row | SMILES | hERG current change (%, negative = inhibition) at 10uM [%]
20 | CCC(C)c1ccccc1O (centres unmarked) | 13.2
21 | COc1ccc(Br)cc1CN(C)C(C)C(=O)Nc1cccc(C(C)=O)c1 (centres unmarked) | -13.3
22 | CNC(=S)N1CCn2cccc2C1c1ccc(F)cc1 (centres unmarked) | -10.1
23 | COc1ccc(CC2(CO)CCN(Cc3ccc4nsnc4c3)CC2)cc1 | -58.9
24 | O=C(N/N=C/c1cccc2ccccc12)c1ccccc1Cl | 8.63
25 | COC(=O)c1[nH]cnc1C(=O)c1ccccc1 | 9.97
26 | CCNc1cccc2c1C(=O)N(C)C2=O | 48.1
27 | NC(=O)N/N=C1\CCS(=O)(=O)c2ccc(F)cc21 | 25.6
28 | COC(=O)c1ccc(OCC(O)CN2CCN(C(=O)c3ccco3)CC2)c(OC)c1 (centres unmarked) | -15.5
29 | COC(=O)c1ccc(SCC(=O)N2CCC(C)CC2)c([N+](=O)[O-])c1 | -4.54
30 | CC(=O)Nc1ccc(OCC(=O)NCc2ccc(C)cc2)cc1 | 5.29
31 | COc1ccc(OC(=O)c2ccc(OC)c(S(=O)(=O)N3CCOCC3)c2)cc1 | -26.3
32 | CCOCCSc1nc2c(c(-c3cccs3)c1C#N)CC/C2=C/c1cccs1 | 12.9
33 | CCOc1ccc(S(=O)(=O)n2nc(C)cc2C)cc1 | 7.05
34 | O=C1CN=C(c2cc([N+](=O)[O-])ccc2Cl)c2cc([N+](=O)[O-])ccc2N1 | -14.4
35 | CCC(C)[C@@H](C(=O)Nc1ccc2c(c1)OCO2)N1Cc2ccccc2C1=O (some centres unmarked) | -20.9
36 | Cc1ccc(S(=O)(=O)N(C)CC(=O)O/N=C(\N)c2cccc([N+](=O)[O-])c2)cc1 | -66.8
37 | CN(CCCNC(=O)c1cc2c(Cl)nc3ccccc3c2s1)Cc1ccccc1 | -44.3
38 | Cc1cc(Br)cc(C)c1OCCCCN(C)C.O=C(O)C(=O)O | -54.4

Row | SMILES | hERG current change (%, negative = inhibition) at 10uM [%]
39 | COC(=O)c1cc(S(=O)(=O)NC2CCC(C)CC2)cn1C (centres unmarked) | 11.4
40 | CCOc1cc2c(cc1OCC)C(c1ccccc1)N(c1ccccc1)C(=O)C2 (centres unmarked) | -6.2
41 | O=C(N/N=C/C1C(c2ccccc2)C1(Cl)Cl)c1cccc(Br)c1 (centres unmarked) | 11
42 | CC(=O)c1c(C)[nH]c(C(=O)CSc2nnc(-c3ccccc3)o2)c1C | 4.71
43 | CCN1CCc2c(sc3c2c(NCc2ccco2)nc2nnnn23)C1 | -73.6
44 | CCCn1c(SCC(=O)N2CCc3ccccc32)nnc1-c1ccco1 | 2.09
45 | Cc1ccc(NC(=S)N(CCN(C)C)Cc2cccs2)cc1C | -46.7
46 | Cn1nccc1C(=O)N1CCC(Cc2ccccc2)CC1 | -9.69
47 | CCOc1cccc(N2C(=O)CC(N3CCC(C(N)=O)(N4CCCCC4)CC3)C2=O)c1 (centres unmarked) | 9.44
48 | O=C(Nc1nnc(-c2ccccc2)o1)Nc1ccc(F)cc1F | 8.52
49 | O=C(O)c1ccc(N2C(=O)C3C4c5ccccc5C(Br)(c5ccccc54)C3C2=O)cc1 (centres unmarked) | 18.8
50 | CC(C)(C)NC(=O)CN(C(=O)CCC(=O)Nc1nccs1)c1cccc(C(F)(F)F)c1 | -16.5
51 | COCc1c(CCl)cnc(C)c1O | 28.8
52 | O=C(NCc1ccccn1)c1cccc(S(=O)(=O)Nc2ccc(SC(F)F)cc2)c1 | -36.9
53 | COc1cccc2c1C(CO)N1C(C#N)C3CC(C(=O)O)C(C1C2)N3C (centres unmarked) | 12.3
54 | O=C1C/C(=C\c2c(F)cccc2Cl)N2CCC1CC2 | -1.93
55 | COc1ccc(CC(=O)N2CCC(c3ccccc3)C2)cc1 (centres unmarked) | -10.1
56 | Cc1sc(NC(=O)CCl)c(C(=O)c2ccccc2)c1C | 21.5
